Test results from the RNAGym collection of RNA variant scans (doi:10.1073/pnas.2313332121).
Variants at the background level are over-represented here.

B1: TPR 5TU (parent)
chain: GGAUCUUCUCGAUCUAACAAAAAAGACAAAUCUGCCACAAAGCUUGAGAGCAUCUUCGGAUGCAGAGGCGGCAGCCUUCGGUGGCGCGAUAGCGCCAACGUUCUCAACUAUGACACGCAAAACGCGUGCUCCGUUGAAUGGAGUUUAUCAUG

Variants of: B1
Assay: polymerase ribozyme fitness, log enrichment relative to wild type (log ratio); higher = more active; in vitro selection for triplet polymerase activity
Outline: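 In triplicate, a single round of in vitro selection was run on each mutant library, PCR-built and transcribed, covering one subunit of a heterodimeric triplet polymerase ribozyme. Frozen incubation at −7 °C followed annealing with a biotinylated primer, partner subunit and triplets, and extended constructs were then gel-excised, streptavidin-captured and taken through RT-PCR. Fitness is the logarithm of genotype enrichment over wild-type enrichment, from inverse-variance-weighted replicate averages of Illumina-sequenced inputs and outputs. […] only genotypes with ≥10 input reads and ≥1 read per output were kept.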

Polymerase ribozyme fitness (log ratio), ≤ -4.2:
GGAUCUUCUCGAUCUAACAAAAUGGACAAAUCUGCCACAAAGCUUGAGAGCAACUUCGGAUGCAGAGGCGGCAGCGUUCGGUGGCGCGAUAGUGCCAACGUUCUCAACUAUGACACGCAAAACGCGUGCUCCGUUGAAUGGAGUUUAUCAUG [A23U A24G U53A C76G C93U]
GGAUCUUCUCGAUCUAACAAAAUUGACAAAUGUGCCACAAAGCUUGAGAGCAUCUUCGGAUGCAGAGGCGGCAGCCUUCGGUGGCGCGGUAGCGCCAACGUUCUCAACUAUGACGCGCAAAACGCGUGCUCCGUUGAAUGGAGUUUAUCAUG [A23U A24U C32G A89G A115G]
GGAUCUUCUCGAUCUAACAAAAUAGCCAAAUCUGCCACAAAGCUUUAGAGCAUCUUCGGAUGCAGAGGCGGCAGCCUUCGGUGACGCGAUAGCGCCAACGUUCUCAACUAUGAAACGCAAAACGCGUGCUCCGUUGAAUGGAGUUUAUCAUA [A23U A26C G46U G84A C114A G152A]
GGAUCUUCUCGAUCUAACAAAAUAGGCAAAUCUGCCACAAAACUUGAGAGCAUCUUCGGAUGCAGAGGCGGCAGCCUUCGGUGACGCGAUAGCGCCUACGUUCUCAACUAUGACAAGCAUAACGCGUGCUCCGUUGAAUGGAGUUGAGCAUG [A23U A26G G42A G84A A97U C116A A120U U146G U148G]
GGAUCUUCUCGAUCUAACAAAAUAGUCAAAUCUGCCACAAAGCUUGAGAGCAUCUUCGGAUGCAGAGGCGGCAGCCUUCGGUGGCGCGAUAGCGCCAACGUUCUCAACUAUGACACGCAAAACGCGUGCUCCGUUGAAUGGAGUUUAUCAUG [A23U A26U]
GGAUCUUCUCGAUCUAACAAAAUAGUCAAAUCUGCCACAAAGCUUGAGAGCAUCUUCGGAUGCAGAGGCGGCAGCCUUCGGUGGCGCGAUAGCGCCAGCGUUCUGAAUUAUGACACGCAAAACGCGUGCUCCGUUGAAUGGAGUUUAUCAUG [A23U A26U A98G C105G C108U]
GGAUCUUCUCGAUCUAACAAAAUAGACUAAUCUGCCACAAAGAUUGAGAGCAUCUUCGGAUGCAGAGGCGGCAGCCUUCGGUGGCGCAAUAGCGCCAACGUUCUCAACUAUGACACGCAAAACGGGUGCUCCGUUGAAUGGAGUUUAUCAUG [A23U A28U C43A G88A C125G]
GGAUCUUCUCGAUCUAACAAAAUAGACACAUCUGCUACAAAGCUUGAGAGCAUCUUCGGAUGCAGAGGCGGCAGCCUUCGAUGGCGCGAUGGCGCCAACGUUCUCAUCUAUGACACGCAAAACGCGUGCUCCGUUGAAUGGAGUUUAUCAUG [A23U A29C C36U G81A A91G A107U]
GGAUCUUCUCGAUCUAACAAAAUAGACACAUCUGCCACAAAGCUUGAGAGUAUCUUCGGAUGCAGAGUCGGGAGCCUUCGGUGGCGCGAUAGCCCCAACGUUCUCAACUAUGACACGCAAAACGCGUGCUCCGUUAAAUGGAGUUUCUCAUG [A23U A29C C51U G68U C72G G94C G136A A147C]
GGAUCUUCUCGAUCUAACAAAAUAGACACAUCUGCCACAAAGCUAUAGAGAAUCUUCGGAUGCAGAGGCGGCAGCCUUCGGUGGCGCGAUAGGGGCAACGUUCUCAACUAUGACACGCAACACGCGUGCUCCGUUGAAAGGAGUUUAUAAUG [A23U A29C U45A G46U C51A C93G C95G A121C U139A C149A]
GGAUCUUCUCGAUCUAACAAAAUAGACAAGUCUGCCACAACGCUUGGGAGCAGCUACGGAUGCAGAGGCGGCAGACUUCGGUGGCGCGAUAGCGCCAACGUUCUCAACUAUGACACGCAAAAGGAGUGCUCCGUUGAAUGGAGUUUAUCAUG [A23U A30G A41C A47G U53G U56A C75A C123G C125A]
GGAUCUUCUCGAUCUAACAAAAUAGACAAAUCUGCCUCAAAGCUUGAGAGCAUCUUCGGAUGCAGAGGCGUCAGCCUUCGGUGGCGCGCUAGCGCCAACGUUCUCAACUAUGACACGCAAAACGAGUGCUCCGUUUAAUGGAGUUUAUCAUG [A23U A37U G71U A89C C125A G136U]
GGAUCUUCUCGAUCUAACAAAAUAGACAAAUCUGCCACCAAGCUUGAGAGCAUCUUCGGAUGCAGAGGCGGCAGCCUUCGGUGGCGCGAUAGCGCUAACGUUCUCAACUAUAACACGCAAAACGCGUGCUCCGUUGAAUGGAGUUUAUCGUG [A23U A39C C96U G112A A150G]
GGAUCUUCUCGAUCUAACAAAAUAGACAAAUCUGCCACUAAGCUUGAGAGCAUCUUCGGAUGCAGAGGCGGCAGCCUUCGGUGUCGCGAUAGCACCAACGUUCUCAACUAUGACACGCAAAACGCGUGCUCCGUUGAAUGGAGUUUAUCAUG [A23U A39U G84U G94A]
GGAUCUUCUCGAUCUAACAAAAUAGACAAAUCUGCCACACAGCUUGAGAGCAUCUUCGGAUGCAGAGGCGGCAGCCUUCGGCGGCGCGCUAGCGCCAACGUUCUCAACUAUGACACGCAAAACGCGUUCUCCGUUGAAUGGAGUUUAUCAUG [A23U A40C U82C A89C G128U]
GGAUCUUCUCGAUCUAACAAAAUAGACAAAUCUGCCACAGAGCUUGAGAGCAUCUUCGGAUGCAGAGGCGGCAGCCAUCGGUGACGCGAUAGCGCCAACGUUCUCAACUAUGACACGCAAAACGCGUGCUCCGUUGAAUGGAGUUGAUCAUG [A23U A40G U77A G84A U146G]
GGAUCUUCUCGAUCUAACAAAAUAGACAAAUCUGCCACAACGCUUGAGCGCAUCUACGGAUGCAGAGGCGGCAGCCUUCGGUGGCGCGAUAGCGCCAAAGUUCUUAACUAUGACACGCAAAACGCGUGCUCCGUUGAAUGGAGUUUAUCAUG [A23U A41C A49C U56A C99A C105U]
GGAUCUUCUCGAUCUAACAAAAUAGACAAAUCUGCCACAACGGUUGAGAGCAUCUUCGGAUGCAGAGGCGGCAGCCUUCGGUGGUGCAAUAGCGCCAACGUUCUCAACUAUGACACGUAAAACGCGUGCUCCAUUGAAUGGAGUUUAUCCUG [A23U A41C C43G C85U G88A C118U G133A A150C]
GGAUCUUCUCGAUCUAACAAAAUAGACAAAUCUGCCACAAAGCUUGAGUGCAUCUUCGGAUGGAGAGGCGGCAGCCUUCGAUCGCGCGAUAGCGCCAACGUUCUCAACUAUGACACGCAAAACGCGUGCUCCGUUGAAUGGAGUUUAUCAUG [A23U A49U C63G G81A G83C]
